The antibiotic and cytotoxicity screens of Wong et al. (2023)
The list shows a part of the results.

System: HSkMC (human skeletal muscle cells)
Test: cytotoxicity call (relative viability < 0.9)
Settings: 10 µM

SMILES | cytotoxicity call
C[C@@H]1CN([C@H](C)CO)C(=O)c2cc(NC(=O)CCN3CCOCC3)ccc2O[C@H]1CN(C)S(=O)(=O)c1ccccc1 | inactive
COCC#Cc1cnc2c(c1)C(=O)N([C@H](C)CO)C[C@@H](C)[C@@H](CN(C)C(C)=O)O2 | inactive
CC(C)(C)[S@](=O)N1Cc2cc(C(=O)NCCc3ccncc3)nc(-c3cccc(-c4cccc(C#N)c4)c3)c2[C@@H]1CCO | inactive
Cc1noc(C)c1NC(=O)N(C)C[C@H]1Oc2c(NS(=O)(=O)c3ccccc3)cccc2C(=O)N([C@@H](C)CO)C[C@@H]1C | inactive
CN(C)C(=O)C[C@@H]1CC[C@H]2[C@@H](COc3ccc(NS(=O)(=O)c4cccc(F)c4)cc3C(=O)N2C)O1 | inactive
C[C@H]1CN([C@@H](C)CO)C(=O)c2cccc(NC(=O)C3CC3)c2O[C@H]1CN(C)C(=O)Nc1ccc2c(c1)OCO2 | inactive
C=c1nc(C)sc1=C1NN=C(N)O1 | inactive
C[C@@H]1CCCCO[C@@H](CN(C)CC2CC2)[C@H](C)CN([C@@H](C)CO)C(=O)c2cc(NC(=O)c3ccccc3)ccc2O1 | inactive
C[C@@H]1CCCCO[C@@H](CN(C)CC2CCCCC2)[C@@H](C)CN([C@@H](C)CO)C(=O)c2cc(NS(=O)(=O)c3ccccc3)ccc2O1 | inactive
O=C(NCC(F)(F)F)c1cc2c(c(-c3cccc(-c4ccccc4F)c3)n1)[C@@H](CCO)N(C(=O)CC1CC1)C2 | active
C[C@@H](NC(=O)C[C@@H]1C=C[C@H](NC(=O)CN2CCOCC2)[C@@H](CO)O1)c1ccccc1 | inactive
C[C@H](CO)N1C[C@H](C)[C@H](CN(C)C(=O)c2ccccc2)OCCCC[C@H](C)Oc2ccc(NC(=O)Nc3ccc(C(F)(F)F)cc3)cc2C1=O | inactive
C[C@H](CO)N1C[C@H](C)[C@H](CN(C)S(=O)(=O)c2cn(C)cn2)Oc2ccc(NC(=O)CCC(F)(F)F)cc2CC1=O | inactive
CC(C)(O)C#Cc1ccc([C@H]2[C@@H](CO)N3CCCCN(S(C)(=O)=O)C[C@H]23)cc1 | inactive
CC(C)NC(=O)N[C@@H]1CC[C@@H](CCN)O[C@H]1CO | inactive
CO[C@@H]1CN(C)C(=O)c2cc(NS(=O)(=O)CC(F)(F)F)ccc2OC[C@H](C)N(Cc2ccccn2)C[C@@H]1C | inactive
CCCCCCc1ccc(O)cc1O.Nc1c2ccccc2nc2ccccc12 | inactive
CC(C)(C)c1nc(-c2cccc(NS(=O)(=O)c3c(F)cccc3F)c2F)c(-c2ccnc(N)n2)s1 | inactive
C[C@@H]1COC(=O)N1 | inactive
CCN1C(=O)CO[C@H]2CN(C(=O)C3CCOCC3)C[C@@H]21 | inactive

SMILES | cytotoxicity call
O=C(CN1CCOCC1)NCC[C@H]1CC[C@@H](NS(=O)(=O)c2ccc(Cl)cc2)[C@H](CO)O1 | inactive
CN1CCN(C(=O)C[C@@H]2C[C@H]3c4cc(NS(=O)(=O)c5ccc(F)cc5)ccc4O[C@H]3[C@@H](CO)O2)CC1 | inactive
C[C@H](CO)N1C[C@H](C)[C@@H](CN(C)Cc2ccc(Cl)c(Cl)c2)Oc2ccc(NC(=O)NC3CCCCC3)cc2CC1=O | inactive
C[C@@H]1CN([C@@H](C)CO)C(=O)c2cc(NS(=O)(=O)c3ccccc3)ccc2O[C@@H](C)CCCCO[C@@H]1CN(C)C(=O)C1CCCCC1 | inactive
C[C@@H]1CN([C@H](C)CO)C(=O)Cc2cc(NS(=O)(=O)c3cn(C)cn3)ccc2O[C@@H]1CN(C)S(=O)(=O)c1ccc(Cl)cc1 | inactive
COc1ccc(NC(=O)N(C)C[C@H]2OCCCC[C@@H](C)Oc3ccc(NS(=O)(=O)c4c(C)noc4C)cc3C(=O)N([C@H](C)CO)C[C@@H]2C)cc1 | inactive
Cc1noc(C)c1S(=O)(=O)N(C)C[C@@H]1Oc2c(NS(=O)(=O)c3cccs3)cccc2C(=O)N([C@H](C)CO)C[C@@H]1C | inactive
C[C@H]1CCCCO[C@@H](CN(C)S(=O)(=O)c2cn(C)cn2)[C@@H](C)CN([C@@H](C)CO)C(=O)c2cc(NS(=O)(=O)c3cccs3)ccc2O1 | inactive
C[C@@H]1CN([C@@H](C)CO)S(=O)(=O)c2ccc(C3=CCCC3)cc2O[C@@H]1CN(C)S(=O)(=O)c1cn(C)cn1 | inactive
Cc1ccc(-n2cnc3cc(NCc4cccs4)ccc32)cc1 | inactive
C[C@@H]1CN([C@H](C)CO)C(=O)c2cc(NC(=O)Nc3cccc4ccccc34)ccc2O[C@@H](C)CCCCO[C@H]1CN(C)Cc1ccc(C(=O)O)cc1 | inactive
C[C@H](CO)N1C[C@H](C)[C@H](CN(C)Cc2ccc(Cl)c(Cl)c2)Oc2ccc(NC(=O)Nc3ccc4c(c3)OCO4)cc2C1=O | inactive
CN(C)CCCNC(=O)C[C@H]1CC[C@H]2[C@@H](COC[C@@H](O)CN2C(=O)c2cc(Cl)cc(Cl)c2)O1 | inactive
COCCNC(=O)C[C@H]1CC[C@H](NS(=O)(=O)c2ccc(C)cc2)[C@@H](CO)O1 | inactive
Cc1ccc(S(=O)(=O)Nc2ccc3c(c2)CC(=O)N([C@@H](C)CO)C[C@H](C)[C@@H](CN(C)CC2CC2)O3)cc1 | inactive
C[C@@H]1CCCCO[C@H](CN(C)C(=O)c2ccccc2)[C@@H](C)CN([C@H](C)CO)C(=O)c2cc(NC(=O)Nc3ccc(C(F)(F)F)cc3)ccc2O1 | inactive
CC1CCN(C(=O)N2c3ccccc3Sc3ccccc32)CC1 | inactive
Cc1noc(C)c1NC(=O)Nc1ccc2c(c1)C(=O)N([C@@H](C)CO)C[C@H](C)[C@H](CN(C)C(=O)NC1CCCCC1)OCCCC[C@@H](C)O2 | inactive
OCc1c[nH]c2ccccc12 | inactive
Cn1cnnc1Sc1c([N+](=O)[O-])ncn1C | inactive
